In paper PMC4336329 (PLoS ONE, 2015):
Out of some 310,000 compounds screened, about 14,000 (4.5%) showed an effect of 50% or more. The effect is printed as a negative number. Some of the results follow.

What follows are molecules tested against human ether-à-go-go-related gene (hERG) potassium channel (human, UniProt Q12809) (assay: primary screen, population patch clamp on CHO cells stably expressing hERG).
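Further: peak tail current of the secondary pulse compared with the same well before compound.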

Sequence of human ether-à-go-go-related gene (hERG) potassium channel (Q12809 whole entry, looked up): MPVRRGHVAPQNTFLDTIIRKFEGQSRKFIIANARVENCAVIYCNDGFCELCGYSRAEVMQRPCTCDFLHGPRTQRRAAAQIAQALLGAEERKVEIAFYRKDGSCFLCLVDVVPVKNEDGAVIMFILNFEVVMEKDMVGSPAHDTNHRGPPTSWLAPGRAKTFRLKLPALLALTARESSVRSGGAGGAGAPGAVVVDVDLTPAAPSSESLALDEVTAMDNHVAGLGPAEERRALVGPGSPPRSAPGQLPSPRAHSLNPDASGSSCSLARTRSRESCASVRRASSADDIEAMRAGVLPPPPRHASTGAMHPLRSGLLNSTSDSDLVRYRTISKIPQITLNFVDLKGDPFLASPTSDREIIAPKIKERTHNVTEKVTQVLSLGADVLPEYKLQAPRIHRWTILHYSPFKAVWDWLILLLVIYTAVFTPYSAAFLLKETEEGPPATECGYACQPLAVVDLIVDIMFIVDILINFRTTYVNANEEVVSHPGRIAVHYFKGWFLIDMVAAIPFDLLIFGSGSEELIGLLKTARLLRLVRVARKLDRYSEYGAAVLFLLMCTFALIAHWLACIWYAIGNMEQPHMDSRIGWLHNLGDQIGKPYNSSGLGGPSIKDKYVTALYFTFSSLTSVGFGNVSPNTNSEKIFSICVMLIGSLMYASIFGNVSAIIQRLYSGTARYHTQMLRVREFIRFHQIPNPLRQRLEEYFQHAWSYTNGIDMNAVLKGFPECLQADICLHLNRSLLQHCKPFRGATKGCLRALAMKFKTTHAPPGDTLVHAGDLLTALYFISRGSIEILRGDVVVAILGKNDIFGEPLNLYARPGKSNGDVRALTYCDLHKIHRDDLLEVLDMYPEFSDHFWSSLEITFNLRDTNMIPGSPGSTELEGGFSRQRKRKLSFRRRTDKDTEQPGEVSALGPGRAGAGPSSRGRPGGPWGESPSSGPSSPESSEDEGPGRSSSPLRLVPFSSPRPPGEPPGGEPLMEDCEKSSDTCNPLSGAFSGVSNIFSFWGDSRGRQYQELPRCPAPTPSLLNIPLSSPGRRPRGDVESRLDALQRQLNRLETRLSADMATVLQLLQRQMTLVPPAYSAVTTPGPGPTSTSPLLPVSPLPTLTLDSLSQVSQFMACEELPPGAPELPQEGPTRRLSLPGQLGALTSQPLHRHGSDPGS

SMILES | hERG current change (%, negative = inhibition) at 10uM
CCOC(=O)c1ccc2c(c1)N(CC(=O)N1CCCCC1)C(=O)C(C)(C)O2 | -13.8%
COc1ccc(C(=O)CC(=O)C(=O)Nc2cc(OC)c(OC)c(OC)c2)cc1 | 8.58%
CCC(C(=O)NC1CCCCC1)N(Cc1cccs1)C(=O)CCC(=O)Nc1cc(C)on1 (stereo not drawn) | -1.15%
COc1cc(/C=N/NC2=NS(=O)(=O)c3ccccc32)ccc1OC(C)=O | 11%
COc1ccccc1OCCCOc1c(C)cc(C)cc1Br | -3.55%
C#CNC(=O)C1(CC=C)CCNCC1 | 12.9%
O=C1CC2(CON=C2c2ccc(F)cc2)C(=O)N1c1ccc(F)cc1 (stereo not drawn) | 10.7%
CCC(Oc1ccc(C)c(C)c1)C(=O)N1CCCN(C)CC1 (stereo not drawn) | -0.563%
COc1cc(/C=C(\C#N)C(=O)Nc2cccc(C(=O)O)c2)ccc1OCc1ccc(C)cc1 | 10.1%
Cc1ccc(C2SCC(=O)Nc3c2c(=O)[nH]n3C2CCOC(C)(C)C2)cc1 (stereo not drawn) | 9.84%
O=S(=O)(Nc1cccc(-c2cn3ccsc3n2)c1)c1ccc(F)cc1 | -11.5%
CCCC(=O)NC(c1ccco1)c1c(O)ccc2ccccc12 (stereo not drawn) | -12.9%
COC(=O)C(Cc1c[nH]c2ccccc12)NC(C)=O (stereo not drawn) | 11%
COc1ccc(N(CC(=O)NCC2CCCO2)C(=O)CCC(=O)Nc2nccs2)cc1 (stereo not drawn) | 14.1%
N#CCCn1cc(C(=O)Nc2ccccc2Br)c(-c2ccc3c(c2)OCCO3)n1 | -6.66%
CCOC(=O)c1c(C)[nH]c(C(=O)OCC(=O)NCc2ccc(OC)c(OC)c2)c1C | 6.99%
O=C(CSc1nnc(-c2ccccc2F)n1C1CC1)NC(=O)c1cccc([N+](=O)[O-])c1 | -52.8%
O=C(C1=C[C@H](c2coc3ccccc3c2=O)C[C@H](OCc2ccc(CO)cc2)O1)N1CCN(Cc2ccccc2)CC1 | -61.7%
CN(C)C(=O)CSc1nnc(Cc2ccc3c(c2)OCO3)o1 | 19.3%
COc1ccc(Br)cc1C(=O)Nc1ccc(Cc2ccncc2)cc1 | -2.36%
Cc1cc(N=Cc2c(O)n(-c3ccc4c(c3)OCO4)c(=O)c3ccccc23)ccn1 | -11.8%
COC(=O)c1ccc(CSc2nnc(NC(C)C)s2)o1 | 29.8%
CN1C(=O)CC(N2CCN(Cc3ccc(Cl)cc3)CC2)C1=O (stereo not drawn) | 2.2%
c1csc(-c2cn3c(n2)SCC3)c1 | -4.81%
